Substrate: COc1ccc2c(c1)[C@]13CCCC[C@@H]1[C@H](C2)N(C)CC3
Test: not read
Conditions: other: CYP3A4OR; DCFH-DA 2.5 μM; NADPH 1 mM; Michaelis-Menten fit; pH 7.4

B1: CYP3A4 (Homo sapiens) (protein)
chain: MALIPDLAMETWLLLAVSLVLLYLYGTHSHGLFKKLGIPGPTPLPFLGNILSYHKGFCMFDMECHKKYGKVWGFYDGQQPVLAITDPDMIKTVLVKECYSVFTNRRPFGPVGFMKSAISIAEDEEWKRLRSLLSPTFTSGKLKEMVPIIAQYGDVLVRNLRREAETGKPVTLKDVFGAYSMDVITSTSFGVNIDSLNNPQDPFVENTKKLLRFDFLDPFFLSITVFPFLIPILEVLNICVFPREVTNFLRKSVKRMKESRLEDTQKHRVDFLQLMIDSQNSKETESHKALSDLELVAQSIIFIFAGYETTSSVLSFIMYELATHPDVQQKLQEEIDAVLPNKAPPTYDTVLQMEYLDMVVNETLRLFPIAMRLERVCKKDVEINGMFIPKGVVVMIPSYALHRDPKYWTEPEKFLPERFSKKNKDNIDPYIYTPFGSGPRNCIGMRFALMNMKLALIRVLQNFSFKPCKETQIPLKLSLGGLLQPEKPVVLKVESRDGTVSGA
Km: 24.2 ± 9.2 µM
